{"source": "PubChem BioAssay AID624417", "about": "(National Center for Advancing Translational Sciences (NCATS), 2012)", "note": "Screen size: about 410,000 compounds; about 6,400 (1.6%) were called active. The inconclusive results got no clear call from the source; some entries with a clear call stand among them for comparison. The call rests on the fitted dose curve; in most records, active means well fitted inhibition curve with a large enough effect; inconclusive means small, poorly fitted or top-dose-only effect; inactive means no such curve, though single readings can be large or run the other way. No potency is given beside an inconclusive call; the fits are too rough.", "data": [{"target": "Glucagon-like peptide 1 receptor (Homo sapiens) (UniProt P43220)", "sequence (P43220 whole entry, looked up)": "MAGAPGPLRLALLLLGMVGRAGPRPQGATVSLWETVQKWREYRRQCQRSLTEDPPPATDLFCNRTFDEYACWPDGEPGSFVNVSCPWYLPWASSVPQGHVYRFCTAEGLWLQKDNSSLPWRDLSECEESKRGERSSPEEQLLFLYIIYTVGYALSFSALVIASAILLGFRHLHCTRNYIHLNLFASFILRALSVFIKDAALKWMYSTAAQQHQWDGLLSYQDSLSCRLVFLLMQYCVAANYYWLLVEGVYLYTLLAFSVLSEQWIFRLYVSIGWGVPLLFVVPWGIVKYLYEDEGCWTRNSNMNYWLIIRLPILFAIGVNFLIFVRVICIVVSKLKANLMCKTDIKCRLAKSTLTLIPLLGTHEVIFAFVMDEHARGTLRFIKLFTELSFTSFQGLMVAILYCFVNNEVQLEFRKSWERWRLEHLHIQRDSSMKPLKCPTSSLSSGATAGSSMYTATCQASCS", "experiment": "qHTS of GLP-1 Receptor Inverse Agonists (Inhibition Mode); further: nearly all actives have a fitted effect of over 55% in size; further: potency means the concentration at half of the fitted maximal effect; tags describe the fitted curve by direction and shape", "conditions": "HEK293 GLP-1R CRE-luciferase, luminescence, 24 h, GLP-1R form is constitutively active; series mostly up to 38.3 µM", "how_it_was_run": "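qHTS in 1536-well format: reporter HEK293 cells expressing constitutive GLP-1R activity in DMEM + 10% Nu serum, 24 hr with compounds at 37 deg C, luminescence read after 12 min with detection reagent.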", "values": [{"compound": "COc1ccc(OC)c(CN2C(=O)CCC2(C)c2nnnn2Cc2ccccc2)c1", "note": "(stereo not given)", "Potency": "inactive"}, {"compound": "CN(C)c1ccc(-c2n(C)c3ccccc3[n+]2C)cc1", "Potency": "inconclusive [inhibitor, full curve, poor fit]"}, {"compound": "COc1ccc(CCNC(=O)CCn2c(=O)c3ccccc3n(Cc3cc(C)ccc3C)c2=O)cc1OC", "Potency": "inactive"}, {"compound": "Fc1ccccc1N1CCN(C(c2cccs2)c2nnnn2CCc2ccccc2)CC1", "note": "(stereo not given)", "Potency": "inconclusive [inhibitor, single point]"}, {"compound": "CCC(=O)NNC(=O)c1cc(COc2cc(Cl)cc(Cl)c2)on1", "Potency": "inactive"}, {"compound": "Cc1ccc(NC(=O)CSc2nnc(CNC(=O)C34CC5CC(CC(C5)C3)C4)n2-c2ccc(F)cc2)cc1", "Potency": "inconclusive [inhibitor, partial curve, poor fit]"}, {"compound": "COCCCN1C(=O)/C(=C/c2ccc(CNS(=O)(=O)c3ccccc3)o2)C(C(=O)OC)=C1C", "Potency": "inactive"}, {"compound": "C/C(=N\\Nc1cc(-c2ccccc2)nc(-c2ccccc2)n1)c1ccc(O)c(C)c1", "Potency": "inconclusive [inhibitor, partial curve, poor fit]"}, {"compound": "Cc1nc2c(-c3ccccc3)c(C)nn2c(C)c1CCC(=O)N1CCN(c2ccc(F)cc2)CC1", "Potency": "inactive"}, {"compound": "COc1cccc(CNC(=O)CCc2c(C)nc3c(c(C)nn3-c3ccc(C)c(C)c3)c2C)c1", "Potency": "inactive"}, {"compound": "Cc1cccc(C(=O)Nc2cccc(Br)c2)c1[N+](=O)[O-]", "Potency": "inconclusive [inhibitor, single point]"}, {"compound": "CC(C)(C)c1ccc(C(=O)Nc2nnc(SCC(=O)NCC3CCCO3)s2)cc1", "note": "(stereo not given)", "Potency": "inconclusive [inhibitor, partial curve, poor fit]"}, {"compound": "CSc1ccc(CCNC(=O)c2ccc(-c3nc(COc4ccccc4)c(C)o3)cc2)cc1", "Potency": "inactive"}, {"compound": "CCCCn1c(N)c(N(CCC(C)C)C(=O)c2ccccc2C)c(=O)[nH]c1=O", "Potency": "inactive"}, {"compound": "O=C(Nc1ccc(OCc2ccccc2)cc1)c1ccccc1", "Potency": "inactive"}, {"compound": "Cc1noc(C(=O)N2CCN(Cc3ccc4c(c3)OCO4)CC2)c1Cl", "Potency": "inconclusive [inhibitor, single point]"}, {"compound": "COc1ccc(NC(=O)Cn2c(=O)n(CCC(=O)NCc3ccccc3OC)c(=O)c3ccccc32)cc1Cl", "Potency": "inactive"}, {"compound": "Cc1nn(C(CC(=O)O)C(=O)O)c(C)c1Br", "note": "(stereo not given)", "Potency": "inactive"}, {"compound": "Cn1ccnc1CN1CCCCC1C(=O)Nc1ccc(Oc2cccnc2)cc1", "note": "(stereo not given)", "Potency": "inconclusive [inhibitor, partial curve, poor fit]"}, {"compound": "NC(=O)c1sc2nc3c(c(-c4ccco4)c2c1N)CCCC3", "Potency": "inconclusive [inhibitor, partial curve, poor fit]"}]}]}
